Source: the supplement of paper PMC4967469
By IC50 is meant the dose at which the fit gives 50% viability; where the fit passes the top or lowest dose, that dose stands as a limit. For AUC the same curve is integrated over the 256-fold range of doses and scaled to a fraction: 1 means no effect, lower means more sensitive. For some assays here: An inferred top dose comes from the curve model; the source does not state it. For some assays here: Drugs with an entry number were screened twice under separate entries, and the two screens often disagree.

Columns and labels:
Assay in all cases: Viability of human cancer cell lines after 72 h of drug (GDSC screen)
GSK690693 = compound: CCn1c(-c2nonc2N)nc2c(C#CC(C)(C)O)ncc(OC[C@H]3CCCNC3)c21 [GSK690693]; conditions: top dose 10.24 µM; top dose inferred
Procedure: (§1)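 Human cancer cell lines in 384-well plates, medium with 10% serum, drug for 72 h over a 256-fold dose range (nine 2-fold or five 4-fold steps up to the top dose). Adherent lines were fixed and stained with the nucleic acid dye Syto60, suspension lines read with resazurin; signal relative to control wells, capped at 0 and 100%. One two-parameter sigmoid per drug and line, fitted in a mixed model over all curves with the slope shared within a line.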

UNC0638 = compound: COc1cc2c(NC3CCN(C(C)C)CC3)nc(C3CCCCC3)nc2cc1OCCCN1CCCC1 [UNC0638]
Procedure: as §1

Tretinoin = compound: CC1=C(/C=C/C(C)=C/C=C/C(C)=C/C(=O)O)C(C)(C)CCC1 [Tretinoin]; conditions: top dose 10 µM; top dose inferred
Procedure: as §1

PI-103 = compound: Oc1cccc(-c2nc(N3CCOCC3)c3oc4ncccc4c3n2)c1 [PI-103]; conditions: top dose 10.24 µM
Procedure: as §1

BX-795 = compound: O=C(NCCCNc1nc(Nc2cccc(NC(=O)N3CCCC3)c2)ncc1I)c1cccs1 [BX-795]; conditions: top dose 5 µM; top dose inferred
Procedure: as §1

SB-505124 = compound: Cc1cccc(-c2[nH]c(C(C)(C)C)nc2-c2ccc3c(c2)OCO3)n1 [SB-505124]; conditions: top dose 10 µM; top dose inferred
Procedure: as §1

WH-4-023 = compound: COc1ccc(N(C(=O)Oc2c(C)cccc2C)c2ccnc(Nc3ccc(N4CCN(C)CC4)cc3)n2)c(OC)c1 [WH-4-023]; conditions: top dose 5.12 µM; top dose inferred
Procedure: as §1

[1] = top dose 20 µM, screen: GDSC drug entry 1236, top dose inferred
[2] = top dose 40 µM, screen: GDSC drug entry 245

Cell Line | AUC (GSK690693) | IC50 (GSK690693) [µM] | AUC (UNC0638; [1]) | IC50 (UNC0638; [1]) [µM] | AUC (UNC0638; [2]) | IC50 (UNC0638; [2]) [µM] | AUC (Tretinoin) | IC50 (Tretinoin) [µM] | AUC (PI-103) | IC50 (PI-103) [µM] | AUC (BX-795) | IC50 (BX-795) [µM] | AUC (SB-505124) | IC50 (SB-505124) [µM] | AUC (WH-4-023) | IC50 (WH-4-023) [µM]
SF126 (glioma, adherent) | 0.953 | > 10.2 | 0.84 | 14.8 | 0.881 | > 40 | 0.986 | > 10 | 0.673 | 2 | 0.815 | 2.95 | 0.938 | > 10 | 0.677 | 1.03
SF268 (glioma, adherent) | 0.968 | > 10.2 | 0.743 | 6.59 | 0.643 | 6.42 | 0.985 | > 10 | 0.663 | 1.89 | 0.853 | 4.37 | 0.983 | > 10 | 0.728 | 1.51
SF539 (glioma, adherent) | 0.882 | 8.97 | 0.645 | 3.01 |  |  | 0.948 | > 10 | 0.608 | 1.23 | 0.858 | 3.46 | 0.975 | > 10 | 0.966 | > 5.12
SH-4 (melanoma, adherent) | 0.97 | > 10.2 | 0.777 | 13.2 | 0.644 | 7.8 | 0.95 | > 10 | 0.745 | 4.89 | 0.903 | > 5 | 0.96 | > 10 | 0.732 | 2.16
SHP-77 (small cell lung carcinoma, semi-adherent) | 0.985 | > 10.2 | 0.966 | > 20 | 0.764 | 13.1 | 0.992 | > 10 | 0.815 | 4.89 | 0.991 | > 5 | 0.991 | > 10 | 0.98 | > 5.12
SIMA (neuroblastoma, adherent) | 0.953 | > 10.2 | 0.804 | 11.6 | 0.689 | 9.14 | 0.985 | > 10 | 0.723 | 3.02 | 0.95 | > 5 | 0.96 | > 10 | 0.838 | 4.12
SJSA-1 (bone, adherent) | 0.907 | > 10.2 | 0.755 | 7.56 | 0.662 | 7.48 | 0.975 | > 10 | 0.507 | 0.67 | 0.904 | > 5 | 0.966 | > 10 | 0.967 | > 5.12
SK-ES-1 (Ewing sarcoma, semi-adherent) | 0.862 | 9.69 | 0.855 | 17.5 | 0.676 | 8.04 | 0.9 | > 10 | 0.558 | 0.93 | 0.811 | 2.87 | 0.971 | > 10 | 0.971 | > 5.12
SK-LMS-1 (soft tissue, adherent) | 0.967 | > 10.2 | 0.785 | 8.13 | 0.784 | 16.1 | 0.965 | > 10 | 0.297 | 0.178 | 0.822 | 2.74 | 0.97 | > 10 | 0.977 | > 5.12
SK-MEL-1 (melanoma, suspension) | 0.992 | > 10.2 | 0.827 | 10.1 | 0.755 | 12 | 0.993 | > 10 | 0.92 | > 10.2 | 0.951 | > 5 | 0.971 | > 10 | 0.99 | > 5.12
SK-MEL-2 (melanoma, adherent) | 0.972 | > 10.2 | 0.829 | 13.1 | 0.879 | > 40 | 0.972 | > 10 | 0.795 | 4.94 | 0.867 | 4.79 | 0.985 | > 10 | 0.957 | > 5.12
SK-MM-2 (myeloma, suspension) | 0.857 | 8.91 | 0.808 | 10.9 | 0.673 | 7.77 | 0.985 | > 10 | 0.496 | 0.624 | 0.967 | > 5 | 0.986 | > 10 | 0.974 | > 5.12
SK-N-FI (neuroblastoma, adherent) | 0.988 | > 10.2 | 0.988 | > 20 | 0.974 | > 40 | 0.958 | > 10 | 0.848 | 7.55 | 0.989 | > 5 | 0.952 | > 10 | 0.971 | > 5.12
SK-PN-DW (Ewing sarcoma, adherent) | 0.898 | > 10.2 | 0.815 | 11.5 | 0.78 | 17.1 | 0.838 | 7.1 | 0.662 | 1.84 | 0.733 | 1.48 | 0.961 | > 10 | 0.972 | > 5.12
SK-UT-1 (soft tissue, adherent) | 0.989 | > 10.2 | 0.988 | > 20 | 0.989 | > 40 | 0.976 | > 10 | 0.814 | 4.97 | 0.81 | 2.34 | 0.98 | > 10 | 0.924 | > 5.12
SLVL (B-cell lymphoma, suspension) | 0.863 | 9.74 | 0.782 | 8.91 | 0.641 | 6.29 | 0.97 | > 10 | 0.354 | 0.246 | 0.973 | > 5 | 0.973 | > 10 | 0.955 | > 5.12
SNB75 (glioma, adherent) | 0.909 | > 10.2 | 0.774 | 11.8 | 0.636 | 7.1 | 0.964 | > 10 | 0.688 | 2.77 | 0.882 | > 5 | 0.925 | > 10 | 0.557 | 0.493

Cell Line | AUC (GSK690693) | IC50 (GSK690693) [µM] | AUC (UNC0638; [1]) | IC50 (UNC0638; [1]) [µM] | AUC (UNC0638; [2]) | IC50 (UNC0638; [2]) [µM] | AUC (Tretinoin) | IC50 (Tretinoin) [µM] | AUC (PI-103) | IC50 (PI-103) [µM] | AUC (BX-795) | IC50 (BX-795) [µM] | AUC (SB-505124) | IC50 (SB-505124) [µM] | AUC (WH-4-023) | IC50 (WH-4-023) [µM]
SNU-C1 (large intestine, suspension) | 0.939 | > 10.2 | 0.773 | 11.8 | 0.909 | > 40 | 0.953 | > 10 | 0.98 | > 10.2 | 0.909 | > 5 | 0.962 | > 10 | 0.98 | > 5.12
SNU-C2B (large intestine, adherent) | 0.977 | > 10.2 | 0.843 | > 20 | 0.703 | 11.3 | 0.945 | > 10 | 0.782 | 5.79 | 0.937 | > 5 | 0.978 | > 10 | 0.873 | > 5.12
SR (lymphoid neoplasm, suspension) | 0.897 | > 10.2 | 0.75 | 5.97 | 0.575 | 3.92 | 0.987 | > 10 | 0.171 | 0.0745 | 0.711 | 1.15 | 0.947 | > 10 | 0.977 | > 5.12
ST486 (Burkitt lymphoma, suspension) | 0.918 | > 10.2 | 0.835 | 11.1 | 0.506 | 2.6 | 0.95 | > 10 | 0.176 | 0.079 | 0.901 | > 5 | 0.982 | > 10 | 0.901 | > 5.12
SU-DHL-4 (B-cell lymphoma, suspension) | 0.068 | 0.0486 | 0.874 | 10.6 | 0.441 | 1.8 | 0.995 | > 10 | 0.234 | 0.144 | 0.943 | 4.53 | 0.997 | > 10 | 0.491 | 0.304
SU-DHL-6 (B-cell lymphoma, suspension) | 0.063 | 0.041 | 0.859 | 10.2 | 0.651 | 5.81 | 0.963 | > 10 | 0.017 | < 0.04 | 0.751 | 1.3 | 0.993 | > 10 | 0.391 | 0.174
SU-DHL-16 (B-cell lymphoma, suspension) | 0.045 | < 0.04 | 0.86 | 9.89 | 0.748 | 10 | 0.977 | > 10 | 0.008 | < 0.04 | 0.803 | 1.73 | 0.988 | > 10 | 0.59 | 0.529
SUP-HD1 (Hodgkin lymphoma, suspension) | 0.876 | 9.35 | 0.822 | 10.9 | 0.562 | 3.65 | 0.975 | > 10 | 0.374 | 0.293 | 0.764 | 1.73 | 0.984 | > 10 | 0.927 | > 5.12
SUP-M2 (anaplastic large cell lymphoma, suspension) | 0.969 | > 10.2 | 0.624 | 2.51 | 0.577 | 3.85 | 0.993 | > 10 | 0.104 | 0.0561 | 0.708 | 1.02 | 0.965 | > 10 | 0.994 | > 5.12
SUP-T1 (T-cell lymphoblastic leukaemia, suspension) | 0.938 | > 10.2 | 0.833 | 11.3 | 0.663 | 6.78 | 0.962 | > 10 | 0.599 | 1.16 | 0.928 | > 5 | 0.972 | > 10 | 0.986 | > 5.12
SW684 (fibrosarcoma, adherent) | 0.98 | > 10.2 | 0.98 | > 20 | 0.973 | > 40 | 0.969 | > 10 | 0.921 | > 10.2 | 0.917 | > 5 | 0.98 | > 10 | 0.409 | 0.16
SW962 (urogenital system, adherent) | 0.958 | > 10.2 | 0.838 | 18.4 | 0.809 | 27.4 | 0.968 | > 10 | 0.859 | > 10.2 | 0.774 | 2.46 | 0.934 | > 10 | 0.661 | 1
TE-1 (oesophagus, adherent) | 0.982 | > 10.2 | 0.816 | 15 | 0.924 | > 40 | 0.972 | > 10 | 0.859 | > 10.2 | 0.908 | > 5 | 0.968 | > 10 | 0.792 | 3.03
TE-5 (oesophagus, adherent) | 0.927 | > 10.2 | 0.897 | > 20 | 0.951 | > 40 | 0.923 | > 10 | 0.983 | > 10.2 | 0.938 | > 5 | 0.955 | > 10 | 0.97 | > 5.12
TE-6 (oesophagus, adherent) | 0.935 | > 10.2 | 0.963 | > 20 | 0.984 | > 40 | 0.969 | > 10 | 0.794 | 5.66 | 0.895 | > 5 | 0.985 | > 10 | 0.912 | > 5.12
TE-8 (oesophagus, adherent) | 0.981 | > 10.2 | 0.982 | > 20 | 0.938 | > 40 | 0.972 | > 10 | 0.852 | 8.83 | 0.78 | 2.2 | 0.888 | > 10 | 0.429 | 0.202
TE-9 (oesophagus, adherent) | 0.985 | > 10.2 | 0.905 | > 20 | 0.98 | > 40 | 0.976 | > 10 | 0.972 | > 10.2 | 0.862 | 4.56 | 0.974 | > 10 | 0.782 | 2.22
